Data: PubChem BioAssay AID504832 (National Center for Advancing Translational Sciences (NCATS), 2011)
The whole screen tested about 310,000 compounds, of which about 18,000 (5.8%) were called active. This list was built around the results that the source calls inconclusive (neither active nor inactive); the mix of calls is not that of the screen. Calls follow the shape of the dose curve; as a rule, active = well fitted inhibition curve with a large enough effect; inconclusive = small, poorly fitted or top-dose-only effect, or another doubt; inactive = no such curve, though single readings can be large or run the other way. No potency is given beside an inconclusive call; the fits are too rough.

Experiment: Primary qHTS for delayed death inhibitors of the malarial parasite plastid, 48 hour incubation
Details: P. falciparum luciferase growth in erythrocytes; series mostly up to 28.7 µM; activity change, negative = inhibition: at the top concentration
Summary of the method: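 Read-out is firefly luciferase luminescence from an integrated reporter in P. falciparum, so falling signal marks reduced parasite growth. Infected erythrocytes were at 2% hematocrit and 0.1% parasitemia (final) in Albumax-supplemented RPMI 1640.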
% is scaled to controls: 0 for no effect and ±100 for the full control effect; potency is read from the fitted curve at half-maximal effect; tags tell the direction and shape of the fitted curve.

Structure (SMILES)	activity change, negative = inhibition	Potency
CCOc1ccc(N=C(NC#N)SCC(=O)NC2CC2)cc1	inactive: 43.5%	–
COc1ccc([C@]23Cc4ccccc4C(O2)c2c(cc(-c4ccccc4)oc2=O)O3)cc1	–	inconclusive [inhibitor, single point]
C/C(=N\Nc1ccc(S(N)(=O)=O)cc1[N+](=O)[O-])c1ccc2c(c1)OCO2	–	inconclusive [inhibitor, partial curve]
Oc1oc(-c2ccccc2)nc1/C=N/c1ccccn1	inactive: -28.5%	–
O=C(CN1CCN(C/C=C/c2ccccc2)CC1)Nc1ccccc1C(=O)NC1CC1	–	inconclusive [inhibitor, single point]
O=C(O)CNC(=O)C12CC3CC(CC(Cl)(C3)C1)C2	inactive: 30.6%	–
Cc1cc(C)nc(/N=C(\N)Nc2cc([N+](=O)[O-])ccc2C)n1	–	inconclusive [inhibitor, single point]
COC(=O)[C@@]12CCCCN1[C@H](c1ccc(-c3ccc(OC)cc3)c(OC)c1)[C@@H]1C(=O)N(C)C(=O)[C@@H]12	–	active: 9.28 µM
COc1ccccc1N(C)S(=O)(=O)c1ccc(Cl)c(C(=O)N2CCC2)c1	–	inconclusive [inhibitor, single point]
Cc1ccc(S(=O)(=O)N(C)C)cc1NC(=O)Nc1ccccc1F	–	inconclusive [inhibitor, partial curve, poor fit]
Cc1nc2ccccn2c1C(=O)NN=C1CCCC1	–	inconclusive [inhibitor, single point]
O=C(CSc1nnc(-c2ccco2)o1)N1CCCCC1	inactive: 169%	–
Cc1cccc(C(=O)Nc2ccc(C(=O)/C=C/c3ccncc3)cc2)c1	–	inconclusive [inhibitor, single point]
CC[C@]1(c2ccccc2OC)ON(c2ccccc2C(F)(F)F)C1=O	–	active: 0.522 µM
Cc1ccc(C(=O)NNC(=O)C2CCN(S(=O)(=O)c3ccc(C)cc3)CC2)cc1	–	active: 2.62 µM
OCC1(Cc2ccc(Cl)cc2)CCN(Cc2ccc(F)c(F)c2)CC1	–	inconclusive [inhibitor, single point]
O=C(Nc1cccc(Cl)c1)c1cccc(N2C(=O)C3CC=CCC3C2=O)c1 (configuration not stated)	–	inconclusive [inhibitor, single point]
COc1cccc(-c2ccc(NC(=O)C3CCCN(Cc4ccc(CO)o4)C3)cc2)c1 (configuration not stated)	–	inconclusive [inhibitor, single point]
COC(=O)c1cc(OC)c(OC)cc1NC(=O)c1csc(C)c1	–	active: 10.4 µM
Cc1cccc(C)c1NC(=O)C1CCCN1S(=O)(=O)c1ccccc1 (configuration not stated)	inactive: 2.45%	–
CN1/C(=C/c2cccc[n+]2CCO)Sc2ccccc21	–	inconclusive [inhibitor, partial curve, poor fit]
COc1ccc(CNC(=O)CSc2nc3ccc(C)cc3[nH]2)cc1	inactive: 32.7%	–
O=[N+]([O-])c1cccc(S(=O)(=O)N/N=C\c2ccc3c(c2)OCO3)c1	inactive: -6.91%	–
COc1cc(C(=S)N2CCOCC2)cc(OC)c1OC(=O)c1ccc(F)cc1	–	inconclusive [inhibitor, partial curve, poor fit]

Structure (SMILES)	activity change, negative = inhibition	Potency
CC1CC(Nc2ccccc2)c2ccccc2N1C(=O)c1cccnc1 (configuration not stated)	–	inconclusive [inhibitor, single point]
COc1ccc(-c2nnc(SCC3CCCO3)n2C)cc1 (configuration not stated)	inactive: 53.4%	–
c1ccc(-c2onc(-c3ccco3)c2-c2ccc3c(c2)OCO3)cc1	–	inconclusive [inhibitor, single point]
O=C(Nc1ccc(OC(F)(F)F)cc1)C1CCCN(C(=O)c2ccc(Cl)cc2)C1 (configuration not stated)	–	inconclusive [inhibitor, single point]
CCCC1(C)Nc2ccccc2-c2nc3ccccc3n21 (configuration not stated)	–	inconclusive [inhibitor, full curve, poor fit]
Cc1ccc(OCCSc2nnc(C)c(=O)n2N)cc1	inactive: 16.4%	–
O=C(NCCCN1CCN(c2cccc(Cl)c2)CC1)c1nc(-c2ccncc2)no1	–	active: 6.57 µM
COc1ccc(Nc2nc(-c3cccc([N+](=O)[O-])c3)nc3ccccc23)cc1	–	inconclusive [inhibitor, single point]
CCN(CC#CCC1(O)c2ccccc2-c2ccccc21)C(C)C	–	inconclusive [inhibitor, single point]
COC(=O)C(=NNc1c(C)n(C)n(-c2ccccc2)c1=O)C(=O)OC	inactive: 3.2%	–
O=c1c2c(n3cnnc3n1-c1ccccc1)-c1ccccc1CC21CCCCC1	–	inconclusive [inhibitor, partial curve, poor fit]
CCOC(=O)c1oc2ccc(S(=O)(=O)n3nc(-c4ccc(OC)cc4)cc3N)cc2c1C	–	inconclusive [inhibitor, single point]
COc1cc(C(=O)Nc2cc3c(cc2N2CCCCC2)n(C)c(=O)n3C)cc(OC)c1OC	–	inconclusive [inhibitor, partial curve]
Cc1cccc(Nc2nc(-c3ccccn3)cs2)n1	–	inconclusive [inhibitor, single point]
CCSc1ccccc1C(=O)N1CCN(c2ccc([N+](=O)[O-])cc2)CC1	inactive: -26.7%	–
CC(=O)c1cc(-c2ccccc2)n(CCC(=O)NC2CCC(C)CC2)c1C (configuration not stated)	–	inconclusive [inhibitor, partial curve, poor fit]
CNC(=O)C1CCN(S(=O)(=O)c2c(C)noc2/C=C/c2cccc(OC)c2)CC1	–	inconclusive [inhibitor, partial curve]
O=S1(=O)CCN(C(CCO)c2cccc(C(F)(F)F)c2)CC1 (configuration not stated)	–	inconclusive [inhibitor, full curve, poor fit]
CC(Oc1ccc2c3c(c(=O)oc2c1)CCCC3)C(=O)NC1CC(C)(C)NC(C)(C)C1 (configuration not stated)	–	active: 14.7 µM
CC(C)C(C)NC(=O)CSc1ccc(S(=O)(=O)N2CCOCC2)cn1 (configuration not stated)	inactive: -8.24%	–
CC(C)C[C@H](NC(=O)c1nc[nH]c1C(=O)NC(c1ccccc1)c1ccccc1)C(=O)OCc1ccccc1	–	active: 3.7 µM
COc1ccc(OC)c(CN2CCN(C(=O)c3cccc(S(=O)(=O)Nc4ccc(C)cc4)c3)CC2)c1	–	active: 10.4 µM
O=C(O)C/C=C(/NC(=O)OCc1ccccc1)C(=O)OCc1ccccc1	inactive: -4.89%	–
C=CCn1c(SCC(=O)Nc2cccc(S(=O)(=O)N(C)c3ccccc3)c2)nnc1C1CC1	inactive: -19.5%	–

Structure (SMILES)	activity change, negative = inhibition	Potency
CN1C(=O)CC(N2CCC(C(N)=O)CC2)C1=O (configuration not stated)	inactive: 12.6%	–
O=C(CSc1nncn1-c1ccccc1)Nc1cccc(S(=O)(=O)N2CCCCC2)c1	inactive: -2.7%	–
COc1ccc(/C=C2\SC(c3ccc(C)cc3)=NC2=O)cc1OC	–	inconclusive [inhibitor, partial curve]
CC(C)C(=O)NC(=S)Nc1c(Cl)ccc2nsnc12	–	inconclusive [inhibitor, single point]
CC(C)C(c1nnnn1Cc1ccccc1)N(Cc1ccco1)Cc1cccs1 (configuration not stated)	–	inconclusive [inhibitor, partial curve, poor fit]
CC(NC(=O)COc1ccccc1)C(c1cccs1)N1CCCC1 (configuration not stated)	–	inconclusive [inhibitor, partial curve, poor fit]
O=C(Nc1cccc(Cl)c1)N1CCN(Cc2ccccc2)CC1	inactive: 59.3%	–
COC(=O)c1sccc1NC(=O)c1c(Cl)cccc1Cl	–	inconclusive [inhibitor, partial curve, poor fit]
O=C(CNC(=O)c1ccc(F)cc1)N/N=C/c1cc(Br)ccc1OC(=O)/C=C/c1ccco1	–	active: 13.1 µM
COc1ccc2nc(SCc3cccc(C)c3)nc(C)c2c1	inactive: 134%	–
Cc1ccc(C(=O)Nc2ccc(Cl)cc2C)c(Cl)c1	inactive: 238%	–
COc1cc2cc(CN(CCc3cccc(C)c3)C(=S)NCCCN3CCOCC3)c(=O)[nH]c2cc1OC	–	inconclusive [inhibitor, partial curve, poor fit]
CC[n+]1c(/C=C/N(C)c2ccccc2)oc2ccc(F)cc21	–	active: 2.94 µM
Nc1cccc(C(=O)Nc2ccc(N)cc2Cl)c1	inactive: 30.1%	–
O=C(/C=C\Nc1ccc2c(c1)OCO2)c1ccc2c(c1)OCO2	inactive: 106%	–
COc1ccc(CCNS(=O)(=O)CC23CCC(CC2=O)C3(C)C)cc1OC (configuration not stated)	–	inconclusive [inhibitor, partial curve, poor fit]
CC(/C=C/c1ccccc1)=N/NC(=O)C(O)c1ccccc1 (configuration not stated)	inactive: 31%	–
Cc1nc2ccc(NS(=O)(=O)c3c(C)c(C)cc(C)c3C)cc2s1	–	inconclusive [inhibitor, single point]
CCCCNC(=O)c1c(O)c2cccc3c2n(c1=O)CCC3	–	inconclusive [inhibitor, single point]
COc1ccc(S(=O)(=O)N2CCc3cc4c(cc3C2C)OCCCO4)cc1 (configuration not stated)	–	inconclusive [inhibitor, partial curve]
O=[N+]([O-])c1cccc(NC(=S)N2CCN(c3ccccn3)CC2)c1	inactive: -3.49%	–
Cc1cc(NC(=O)CN2CCCCCCC2)no1	inactive: 12%	–
O=S(=O)(c1cccc(C(F)(F)F)c1)N1CCN(C(=S)NC2CC2)CC1	–	inconclusive [inhibitor, single point]
CCn1cc(C(=O)N[C@@H](CC(C)C)C(=O)NCCCn2ccnc2)c(=O)c2cc3c(cc21)OCO3	–	inconclusive [inhibitor, single point]
